# In all, about 48,000 compounds went through this assay and about 120 (0.25%) were called active. Roughly 4% stayed inconclusive and do not appear here. Calls follow the shape of the dose curve; as a rule, active = well fitted activation curve with a large enough effect; inconclusive = small, poorly fitted or top-dose-only effect, or another doubt; inactive = no such curve, though single readings can be large or run the other way. The list shows a part of the results.
# Test: Primary qHTS for Identification of Small Molecule Activators of Huntingtin-Antisense Promoter Activity; also: nearly all actives have a fitted effect of over 55% in size
# Details: HEK293 HTT-AS promoter firefly luciferase reporter (activity 0% = vehicle and -100% = no light), 24 h; series mostly up to 57.5 µM; activity change, positive = activation: at the top concentration
# Summary of the method: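 HEK293 luciferase promoter-reporter cells (2,500/well) plated 24 h, then compounds added at up to 57.5 uM final for 24 h at 37 °C. Firefly luminescence by Dual-Glo, normalized to vehicle (0%) and zero RLU (-100%).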
row,SMILES,"activity change, positive = activation"
1,CCCCN(CC)CCCNC(=O)Cn1ncc2c3ccccc3n(Cc3ccc(F)cc3)c2c1=O,inactive: -6.59%
2,Cn1c(=O)c(=O)n(C)c2cc(S(=O)(=O)N3CCN(c4ccccc4)CC3)ccc21,inactive: -8.36%
3,Cc1cccc(C(=O)Oc2c(Sc3ccccc3)c(C)nn2C(C)(C)C)c1,inactive: -26.4%
4,CC(NC(=O)c1ccc2c(c1)sc1nc(-c3ccccc3)cn12)C12CC3CC(CC(C3)C1)C2 (centres undefined),inactive: -7.31%
5,CCOC(=O)c1c(S(=O)(=O)N2CCCC(C(=O)NCc3ccccc3OC)C2)c(C)n(C)c1C (centres undefined),inactive: -6.01%
6,CCc1nc(SC)ncc1C(=O)N1CCN(c2cc(C)ccc2C)CC1,inactive: -35.9%
7,Cc1ccc(NC(=O)c2ccc(=O)n(Cc3ccccc3C)c2)c(C)c1,inactive: -22.6%
8,Cc1ccc(CN2CCCn3nc(C(=O)NCCc4cccc(C)c4)cc3C2=O)cc1,inactive: -9.66%
9,Cc1ccc(-c2nc(N3CCCC(C)C3)c3ccccc3n2)cc1 (centres undefined),inactive: -3.12%
10,CCc1ccccc1NC(=O)CSc1nc2c(oc3ccccc32)c(=O)n1C,inactive: -10.3%
11,NC(=O)C1CCN(S(=O)(=O)c2ccc(N3CCCCS3(=O)=O)cc2)CC1,inactive: 1.24%
12,COc1cccc(CNC(=O)C2CCCN(c3nc4ccccc4n4cccc34)C2)c1 (centres undefined),inactive: -7.57%
13,Cc1nn(C)c2c1c(-c1ccccc1)cc(=O)n2CC(=O)NC(C)C,inactive: -9.35%
14,Cc1ccc(CN2CCCn3nc(C(=O)NCCc4ccccc4Cl)cc3C2=O)cc1,inactive: 9.67%
15,COc1ccc(CCNCc2ccc3c(c2)n(C)c(=O)n3C)cc1OC,inactive: -15.2%
16,Cc1ccc(CNC(=O)c2ccc3c(O)c(S(=O)(=O)c4ccc(Cl)cc4)c(=O)[nH]c3c2)cc1,inactive: -6.5%
17,CCOc1ccccc1NC(=O)C1=C(C)Nc2ncnn2C1c1ccc(C)o1 (centres undefined),inactive: -14.8%
18,COc1ccc(-c2nc(CCNC(=O)c3ccc(Br)o3)cs2)cc1,inactive: -24.5%
19,O=[N+]([O-])c1cc(-c2nc(-c3ccccc3)no2)ccc1N1CCOCC1,inactive: -17.6%
20,CCc1ccccc1NC(=O)Cn1c(SCc2ccc(F)cc2)nc2ccncc21,inactive: -1.84%
21,CCc1cccc(CC)c1NC(=O)CCS(=O)(=O)c1ccc2c(c1)CCN2C(C)=O,inactive: -6.57%
22,COc1ccc(-c2nc(CNS(=O)(=O)c3cccc(F)c3)cs2)cc1,inactive: -30.2%
23,O=C(CCCn1c(=O)c2cccn2c2ccccc21)NCc1ccccc1Br,inactive: -8.89%
24,COc1cc(C(C)C)c2c(c1)S(=O)(=O)N(COc1cc(=O)n3cccc(OCCN4CCCCC4)c3n1)C2=O,inactive: -28.1%
25,Cc1ccc(Nc2sc(C(=O)c3ccccc3)c(N)c2C(N)=O)cc1,inactive: -7.93%

row,SMILES,"activity change, positive = activation"
1,CC1CCN(C(=O)C2COc3ccccc3C2)CC1 (centres undefined),inactive: 32%
2,COc1ccc(S(=O)(=O)NCc2nc3nc(C)cc(C)n3n2)cc1OC,inactive: -7.55%
3,COc1ccc(Nc2c3c(nc4nncn24)CCC3)cc1OC,inactive: -27.4%
4,COc1ccc(CNC(=O)CSc2c3c(nc4ccc(Cl)cc24)CCCC3)cc1,inactive: -35.9%
5,CCc1nn(CC(=O)Nc2ccc(NC(C)=O)cc2)c(=O)c2cc3sccc3n12,inactive: -7.94%
6,O=C(Cn1cnc2onc(-c3ccc(Cl)cc3)c2c1=O)Nc1ccc(F)cc1,inactive: -0.29%
7,COCCNC(=O)CN1C(=O)c2cccnc2Oc2ccc(Cl)cc21,inactive: -3.31%
8,CN(C)CCN(Cc1ccsc1)c1ccccn1,inactive: -4.24%
9,Cc1ccc(S(=O)(=O)N(CCc2ccccc2)CC(=O)Nc2ccc(Br)cc2)cc1,inactive: -25.6%
10,CCOC(=O)c1ccc(N2C(=O)c3n[nH]c(-c4ccco4)c3C2c2cccc(O)c2)cc1 (centres undefined),inactive: -50%
11,COc1cccc(NC(=O)CSC2=Nc3ccccc3C3=NC(CC(=O)NCc4ccc5c(c4)OCO5)C(=O)N23)c1 (centres undefined),inactive: -6.16%
12,COc1ccc(C)cc1NC(=O)Nc1ccccc1OCc1cc(=O)n2ccccc2n1,inactive: -37.4%
13,CCCCNC(=O)c1cnc2sc(N3CCCCCC3)nn2c1=O,inactive: -8.46%
14,Cc1cc(C)c(NC(=O)C(=O)NCC(c2cccnc2)N2CCN(Cc3ccccc3)CC2)c(C)c1 (centres undefined),inactive: -12.7%
15,Cc1ccccc1-c1noc(-c2ccc(N3CCN(C)CC3)c([N+](=O)[O-])c2)n1,inactive: -69.7%
16,COc1ccc2c(c1)c1c(c(=O)n(-c3ccccc3)c(=O)n1CC(=O)NCc1ccc(C)cc1)n2C,inactive: -7.11%
17,CSc1nn(Cc2cccc(Cl)c2)c(N(C(C)=O)C(C)=O)c1S(=O)(=O)c1ccccc1,inactive: -38.8%
18,COc1ccc(CC(=O)N(Cc2nc(-c3ccc(C)cc3)no2)C(C)C)cc1,inactive: -26%
19,O=C(CSc1nc2nccnc2c(=O)n1CCc1c[nH]c2ccccc12)Nc1ccc(F)cc1,inactive: -31.5%
20,Cc1ccc(NC(=O)c2ccc(CNS(=O)(=O)c3ccc4c(c3)C(C)(C)C(=O)N4C)cc2)cc1F,inactive: -45%
21,CCCCOc1ccccc1C(=O)N(Cc1cccc(F)c1)C1CCS(=O)(=O)C1 (centres undefined),inactive: -15.7%
22,CCOc1ccc(CCNC(=O)CSc2nnnn2-c2ccc(C)cc2C)cc1OCC,inactive: -23.9%
23,CCOC(=O)C1=C(CN(C)Cc2ccccc2)NC(=O)NC1c1ccc(OC)cc1 (centres undefined),inactive: -24%
24,O=C(NCC(c1cccnc1)N1CCc2ccccc21)c1ccc(F)cc1 (centres undefined),inactive: -33.6%

# Reference: PubChem BioAssay AID1508624 (National Center for Advancing Translational Sciences (NCATS), 2021)
